Test results from PubChem BioAssay AID588795 (National Center for Advancing Translational Sciences (NCATS), 2011).
Out of some 390,000 compounds screened, about 1,400 (0.36%) were called active. Inconclusive results, whose numbers are uncertain, are shown with a selection of clear calls. Calls come from the whole dose curve; as a rule, active = well fitted inhibition curve with a large enough effect; inconclusive = small, poorly fitted or top-dose-only effect; inactive = no such curve, though single readings can be large or run the other way. A potency beside an inconclusive call is a rough fit, not a confirmed value.
% is set by controls: 0 for no effect and ±100 for the full control effect; potency is the fitted concentration of half-maximal effect; tags give direction and shape of the fitted curve.
Note: nearly all actives have a fitted effect of over 65% in size.

Each molecule was assayed against Flap endonuclease 1 (Homo sapiens) (UniProt P39748) (assay: qHTS Assay for the Inhibitors of Human Flap endonuclease 1 (FEN1).). Conditions: Recombinant FEN1 flap cleavage, fluorescence, 15 min; series mostly up to 114 µM; activity change, negative = inhibition: at the top concentration.
Sequence of UniProt P39748 (P39748 whole entry, looked up): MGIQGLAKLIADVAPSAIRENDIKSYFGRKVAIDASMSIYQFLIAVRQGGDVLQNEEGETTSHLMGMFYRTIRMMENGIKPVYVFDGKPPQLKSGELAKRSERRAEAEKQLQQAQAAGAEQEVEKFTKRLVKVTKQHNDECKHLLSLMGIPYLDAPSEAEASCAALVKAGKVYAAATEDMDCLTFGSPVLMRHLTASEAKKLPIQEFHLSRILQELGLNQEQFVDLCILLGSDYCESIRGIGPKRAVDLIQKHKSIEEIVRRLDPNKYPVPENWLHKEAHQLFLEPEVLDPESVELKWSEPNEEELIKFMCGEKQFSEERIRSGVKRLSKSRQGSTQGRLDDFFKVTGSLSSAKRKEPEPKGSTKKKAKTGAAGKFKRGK
How it was run: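 Concentration–response screening of FEN1 (10 nM): 15 min compound preincubation at room temperature, reaction started with 50 nM substrate and read at 0 and 15 min. Corrected, normalized data were fitted by a four-parameter Hill equation.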
`CCC(CO)[n+]1c(C)cc(/C=C2\Sc3ccccc3N2Cc2ccccc2)cc1C` (configuration not stated) was tested, and the Potency was active: 50.1 µM.
With `N#CC1CC(c2ccccc2)=NN1c1ccccc1[N+](=O)[O-]` (configuration not stated) the Potency was inconclusive: 89.1 µM [inhibitor, partial curve, poor fit].
With `Cc1ccccc1C(=O)c1cccn1CC(=O)NC(C)CCc1ccccc1` (configuration not stated) the Potency was inconclusive: 79.4 µM [inhibitor, partial curve, poor fit].
`CCOc1ccc(CNC(=O)C2CCCN(c3nc4c(C)cc(C)cc4s3)C2)cc1` (configuration not stated) was tested, and the “activity change, negative = inhibition” value was inactive: -1.28%.
In the case of `Cc1cccc(NCC(=O)N/N=C\c2cccc(Oc3ccccc3)c2)c1`, the Potency is reported as inconclusive: 31.6 µM [inhibitor, partial curve, poor fit].
`COc1ccc(OC(=O)c2nc(SCc3ccc(C)cc3)ncc2Cl)cc1` was tested, and the “activity change, negative = inhibition” value was inactive: -21.9%.
For `CCOC(=O)c1c(C)oc2c1cc(NS(=O)(=O)c1ccc(C(=O)O)cc1)c1ccccc12`, the Potency was inconclusive: 79.4 µM [inhibitor, single point].
`COc1ccccc1-n1c(=S)[nH]c2c(sc(=S)n2-c2ccccc2)c1=O` was tested, and the “activity change, negative = inhibition” value was inactive: -4.12%.
For `CCCC(=O)OCCNc1cc(SCCC(=O)OC)c2nonc2c1[N+](=O)[O-]`, the Potency was inconclusive: 79.4 µM [inhibitor, single point].
For `CCCCOC(=O)NS(=O)(=O)c1sc(CC(C)C)cc1-c1ccc(Cn2c(CC)nc3c(C)cc(C)nc32)cc1`, the Potency was inconclusive: 4.74 µM [inhibitor, partial curve, poor fit].
With `O=[N+]([O-])c1ccccc1N/N=C/c1ccccc1` the “activity change, negative = inhibition” value was inactive: -2.5%.
In the case of `Cc1cccn2c(=O)c(/C=C(\C#N)c3nc4ccccc4n3C)c(Oc3ccc(Br)cc3)nc12`, the Potency is reported as inconclusive: 79.4 µM [inhibitor, partial curve, poor fit].
For `O=C(NCCc1ccccc1)c1ccc2c(=O)[nH]c3c(C(=O)NCC4CCCO4)sc(=S)n3c2c1` (configuration not stated), the Potency was inconclusive: 79.4 µM [inhibitor, single point].
With `Oc1c(Br)cc(/C=N/NC(=S)NCc2ccco2)cc1Br` the “activity change, negative = inhibition” value was inactive: 0.633%.
For `Cc1cccc(C)c1Nc1c(-c2ccsc2)nc2ccccn12`, the Potency was inconclusive: 50.1 µM [inhibitor, partial curve, poor fit].
With `S=Cc1ccc(/C=C/c2ccnc3ccccc23)cc1` the Potency was inconclusive: 50.1 µM [inhibitor, partial curve].
`CCCNC(=O)c1ccc2c(=O)c(O)c(-c3ccc(F)cc3)[nH]c2c1` was tested, and the Potency was inconclusive: 17.8 µM [inhibitor, partial curve, poor fit].
In the case of `C=C(C)C(=O)Nc1cccc(C2=NOC3(C2)C[C@H](C(N)=O)N(C(=O)c2ccccc2)C3)c1` (some centres not stated), the “activity change, negative = inhibition” value is reported as inactive: -17.1%.
In the case of `O=C(Cn1cc(SCc2ccc(C(F)(F)F)cc2)c2ccccc21)N1CCCCC1`, the Potency is reported as inconclusive: 22.4 µM [inhibitor, partial curve, poor fit].
For `O=C(c1ccco1)N1CCN(CCCCN2C(=O)c3ccccc3C2=O)CC1`, the Potency was inconclusive: 0.158 µM [inhibitor, full curve, poor fit].
`COc1cc(OC)c(/C=C/c2cc[n+](C)c3ccccc23)c(OC)c1` was tested, and the Potency was inconclusive: 50.1 µM [inhibitor, partial curve].
In the case of `COc1ccc(OC)c(C2CC(=O)N3CN(c4ccccc4F)CSC3=C2C#N)c1` (configuration not stated), the Potency is reported as inconclusive: 89.1 µM [inhibitor, single point].
For `COc1ccc(-n2sc3ccc(F)cc3c2=O)cc1`, the Potency was inconclusive: 89.1 µM [inhibitor, single point].
`COc1cccc(-c2onc3ccc(C(=O)/C=C/N(C)C)cc23)c1` was tested, and the Potency was inconclusive: 39.8 µM [inhibitor, partial curve, poor fit].
For `COc1cccc(C(=O)NC(=S)Nc2ccc3c4c(cccc24)CC3)c1`, the “activity change, negative = inhibition” value was inactive: -15.1%.
For `O=C(Nc1sc2c(c1C(=O)O)CCCC2)c1ccccc1Cl`, the “activity change, negative = inhibition” value was inactive: -9.8%.
For `CCOc1ccc(/C=C(\C#N)c2nc(-c3cc4ccccc4oc3=O)cs2)c(OCC)c1`, the “activity change, negative = inhibition” value was inactive: 12.3%.
`CCCCNC(=O)c1onc(CSc2nc3ccccc3[nH]2)c1C(=O)NCCCC` was tested, and the Potency was inconclusive: 79.4 µM [inhibitor, partial curve, poor fit].
For `O=C(COC(=O)c1ccc([N+](=O)[O-])o1)Nc1ncc(Cl)cc1Cl`, the Potency was inconclusive: 56.2 µM [inhibitor, partial curve].
With `C/C(=N\Nc1nc(N2CCCCC2)nc(N2CCOCC2)n1)c1ccccc1O` the Potency was inconclusive: 79.4 µM [inhibitor, partial curve, poor fit].
`Cn1cc(Br)c(C(=O)n2cc(Br)cn2)n1` was tested, and the “activity change, negative = inhibition” value was inactive: 7.21%.
In the case of `O=C(Nc1cccc(Cl)c1)c1c(NC(=O)C(F)(F)F)sc2c1CCCC2`, the Potency is reported as inconclusive: 70.8 µM [inhibitor, partial curve].
`COc1ccc2cc3c(N)nn(C(=O)Cc4c[nH]c5ccccc45)c3nc2c1` was tested, and the Potency was inconclusive: 35.5 µM [inhibitor, full curve].
`COc1ccc(Nc2c(-c3cc(Br)ccc3O)nc3ncccn23)cc1OC` was tested, and the “activity change, negative = inhibition” value was inactive: -28.5%.
In the case of `CN(CC(=O)Nc1ccccc1C(F)(F)F)C(=O)c1ccc2c(=O)n3c(nc2c1)CCC3`, the Potency is reported as inconclusive: 89.1 µM [inhibitor, single point].
For `CCC(COC(=O)c1ccccc1)Oc1cc(NCc2ccccc2)c2ncn(C(C)C)c2c1` (configuration not stated), the Potency was inconclusive: 12.6 µM [inhibitor, partial curve].
With `O=C(CSc1ncc2c(n1)-c1ccccc1N(Cc1ccc(F)cc1)S2(=O)=O)c1ccc(Cl)cc1` the “activity change, negative = inhibition” value was inactive: -0.0002%.
In the case of `COCc1cc(C)n(CC(=O)Nc2ccc(NC(C)=O)cc2)c(=O)c1C#N`, the Potency is reported as inconclusive: 100 µM [inhibitor, partial curve, poor fit].
`Cc1cc(C)cc(NC(=O)c2nnn(Cc3cc(C)ccc3C)c2N)c1` was tested, and the Potency was inconclusive: 17.8 µM [inhibitor, partial curve, poor fit].
For `COc1cccc(/C=C2\Oc3cc(OCC(=O)N4CCC[C@H]4C(=O)O)ccc3C2=O)c1`, the Potency was inconclusive: 89.1 µM [inhibitor, partial curve, poor fit].
For `CCN(CC)S(=O)(=O)c1ccc(N2CCOCC2)c(NS(=O)(=O)c2cccs2)c1`, the “activity change, negative = inhibition” value was inactive: 8.79%.
`CC(C)Cn1c(N)c(C(=O)NCC2CCCO2)c2nc3ccccc3nc21` (configuration not stated) was tested, and the Potency was inconclusive: 50.1 µM [inhibitor, partial curve].
`O=C(O)c1cccc(-n2cccc2/C=C2\SC(=O)N(Cc3ccccc3F)C2=O)c1` was tested, and the “activity change, negative = inhibition” value was inactive: 8.39%.
In the case of `COc1ccc(N(C)S(=O)(=O)c2cccc(C(=O)Nc3nc(C)cs3)c2)cc1`, the Potency is reported as inconclusive: 39.8 µM [inhibitor, partial curve, poor fit].
With `COc1ccc(Nc2nc(C(=O)N3CCc4cc(OC)c(OC)cc4C3)cs2)cc1` the Potency was inconclusive: 39.8 µM [inhibitor, single point].
`NC(=O)c1ccsc1NC(=O)c1ccc([N+](=O)[O-])o1` was tested, and the Potency was inconclusive: 35.5 µM [inhibitor, partial curve].
In the case of `Clc1cccc(-c2ccc(/C=N/n3cnnc3)o2)c1`, the “activity change, negative = inhibition” value is reported as inactive: -5.22%.
`C=CS(=O)c1sc(Cl)c(N2CCOCC2)c1[N+](=O)[O-]` (configuration not stated) was tested, and the Potency was inconclusive: 70.8 µM [inhibitor, single point].
With `COc1ccc(/C=N/NC(=O)c2ccc(Cn3cc([N+](=O)[O-])cn3)o2)c(OC)c1C` the Potency was inconclusive: 89.1 µM [inhibitor, single point].
`COC(=O)c1cc2oc3ccccc3c2n1CC(=O)Nc1cccc(SC)c1` was tested, and the “activity change, negative = inhibition” value was inactive: -1.9%.
With `CC1=CC(C)(C)N=C(Nc2nc(C)c3cc(C)cc(C)c3n2)N1` the Potency was inconclusive: 22.4 µM [inhibitor, full curve, poor fit].
`COc1ccc(-c2cc(OC(=O)c3ccccc3C)c3c(C)oc(C)c3c(=O)c2)cc1` was tested, and the Potency was inconclusive: 50.1 µM [inhibitor, partial curve].
`CC1CC(C)CN(C(=O)COC(=O)c2ccc([N+](=O)[O-])o2)C1` (configuration not stated) was tested, and the “activity change, negative = inhibition” value was inactive: -18.5%.
In the case of `COc1ccc(Nc2nc(N)c(C(=O)c3ccc(OC)cc3)s2)cc1`, the Potency is reported as inconclusive: 89.1 µM [inhibitor, partial curve, poor fit].
For `COc1cc2cc(C(c3nnnn3C3CCCCC3)N(C)C3CCCCC3)c(=O)[nH]c2cc1OC` (configuration not stated), the Potency was inconclusive: 79.4 µM [inhibitor, partial curve, poor fit].
With `COC(=O)c1ccc2[nH]ccc2c1` the Potency was inconclusive: 89.1 µM [inhibitor, partial curve, poor fit].
With `O=C(CCS(=O)(=O)c1ccccc1Cl)NCc1ccc(F)cc1` the “activity change, negative = inhibition” value was inactive: -2.71%.
In the case of `Cc1ccc(C)c(NC(=O)CSc2nnc(CNC(=O)c3ccccc3)n2-c2ccccc2)c1`, the “activity change, negative = inhibition” value is reported as inactive: 14.1%.
For `CCCCCCCCCc1nc(N)n[nH]1`, the “activity change, negative = inhibition” value was inactive: -2.36%.
In the case of `Cn1c(=O)c2sccc2n2c(CCCC(=O)Nc3ccc(Cl)cc3)nnc12`, the Potency is reported as inconclusive: 70.8 µM [inhibitor, single point].
With `CCCCN(C)CC(O)Cn1cc(/C=C/C(=O)c2cccs2)c2ccccc21` (configuration not stated) the Potency was inconclusive: 50.1 µM [inhibitor, partial curve, poor fit].
With `O=C1c2ccccc2C(=O)N1CCCc1c[nH]c2ccc(Cl)cc12` the Potency was inconclusive: 56.2 µM [inhibitor, partial curve, poor fit].
In the case of `O=C(COC(=O)c1ccccc1Oc1ccccc1)Nc1ccc(Br)cc1`, the “activity change, negative = inhibition” value is reported as inactive: 13.6%.
For `O=C(CSc1nc(-c2ccco2)nc2cc(=O)[nH]n12)Nc1ccc(F)cc1`, the “activity change, negative = inhibition” value was inactive: 16.2%.
With `CCOC(=O)Cc1cc(=O)n2[nH]c(C(C)(C)C)cc2n1` the “activity change, negative = inhibition” value was inactive: -1.58%.
In the case of `COc1ccc(CCNC(=O)c2nc(SCc3ccc(F)cc3)ncc2Cl)cc1OC`, the “activity change, negative = inhibition” value is reported as inactive: -11.4%.
In the case of `NC(=O)[C@@H]1CCCCNc2c(F)cc([N+](=O)[O-])cc2C(=O)N[C@@H](CCCN=C(N)N)C(=O)NCC(=O)N1`, the Potency is reported as inconclusive: 89.1 µM [inhibitor, single point].
